# Measured values from the supplement of paper PMC12217912.
# This is one part of the list. Sequences were assembled here from the parent chain. Inactive controls read about 0.05.
# B1: TEV protease; numbered along this chain (parent)
# chain: MGESLFKGPRDYNPISSSICHLTNESDGHTTSLYGIGFGPFIITNKHLFRRNNGTLVVQSLHGVFKVKDTTTLQQHLVDGRDMIIIRMPKDFPPFPQKLKFREPQREERICLVTTNFQTKSMSSMVSDTSCTFPSGDGIFWKHWIQTKDGQCGSPLVSTRDGFIVGIHSASNFTNTNNYFTSVPKNFMELLTNQEAQQWVSGWRLNADSVLWGGHKVFMVKPEEPFQPVKEATQL
# Variants of: B1
# Assay: raw area under fraction-flipped curve 0-4 h after induction (AUC4h, not background-subtracted), DNA-recorder readout of cleavage of the substrate (dimensionless); higher = more cleavage of the substrate by the protease variant
# Conditions: temperature: 34 °C; time window: 0-4 h after rhamnose induction
# Protocol: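 In vivo DNA recorder in E. coli TOP10(DE3) ΔrhaA at 34 °C. Each TEVp single-site mutant (parent TEVp 0) is paired with a single-site variant of the 7-mer TEVs (canonical ENLYFQ|S). The substrate sits between flexible linkers in a Bxb1-sfGFP-TEVs-SsrA fusion, so cleavage stabilises Bxb1 and speeds flipping of a recombination array, read by NGS. The value is the raw area under the fraction-flipped curve over 0-4 h after rhamnose induction (AUC4h), with ≥20 reads per time point. It is not background-subtracted; inactive controls average about 0.047.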
# 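Also: Bxb1 expression induced with 0.2% (w/v) L-rhamnose at OD600 near 0.5, cultures sampled hourly, flipped fraction per protease–substrate barcode pair counted by paired-end Illumina sequencing.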
Variant,area with substrate ECLYFQS,area with substrate EGLYFQS,area with substrate EHLYFQS,area with substrate EILYFQS,area with substrate EKLYFQS,area with substrate ELLYFQS,area with substrate EMLYFQS,area with substrate EPLYFQS,area with substrate ERLYFQS,area with substrate ETLYFQS
MGESLFKGPRDYNPISSSICHLTNESDGHTTSLYGIGFGPFIITNKHLFRRNNGTLVVQSLHGVFKVKDTTTLQQHLVDGRDMIIIRMPKDFPPFPQKLKFREPQREERICLVTTNFQTKSMSSMVSDTSCTFPSGDGIFWKHWIQTKDGQCGSPLVSTRDGFIVGIHSASNFTNTNNYFTSVPKNFMELLTNQEAQQWVSGWRLEADSVLWGGHKVFMVKPEEPFQPVKEATQL [N206E],0.0901,0.0806,0.139,0.0992,0.0997,0.0874,0.0846,0.0997,0.104,0.124
MGESLFKGPRDYNPISSSICHLTNESDGHTTSLYGIGFGPFIITNKHLFRRNNGTLVVQSLHGVFKVKDTTTLQQHLVDGRDMIIIRMPKDFPPFPQKLKFREPQREERICLVTTNFQTKSMSSMVSDTSCTFPSGDGIFWKHWIQTKDGQCGSPLVSTRDGFIVGIHSASNFTNTNNYFTSVPKNFMELLTNQEAQQWVSGWRLNADSVSWGGHKVFMVKPEEPFQPVKEATQL [L211S],0.139,,,0.148,,,,,0.143,0.154
MGESLFKGPRDYNPISSSICHLTNESDGHTTSLYGIGFGPFIITNKHLFRRNNGTLVVQSLHGVFKVKDTTTLQQHLVDGRDMIIIRMPKDFPPFPQKLKFREPQREERICLVTTNFQTKSMSSMVSDTSCTFPSGDGIFWKHWIQTKDGQCGSPLVSTRDGFIVGIHSASNFTNTNNYFTSVPKNFMELLTNQEAQQWVSGWRLNADSVLWGQHKVFMVKPEEPFQPVKEATQL [G214Q],0.0728,,0.0994,,,,,,,
MGESLFKGPRDYNPISSSICHLTNESDGHTTSLYGIGFGPFIITNKHLFRRNNGTLVVQSLHGVFKVKDTTTLQQHLVDGRDMIIIRMPKDFPPFPQKLKFREPQREERICLVTTNFQTKSMSSMVSDTSCTFPSGDGIFWKHWIQTKDGQCGSPLVSTRDGFIVGIHSASNFTNTNNYFTSVPKNFMELLTNQEAQQWVSGWRLNADSVLWGGHWVFMVKPEEPFQPVKEATQL [K216W],0.0778,0.0549,0.0853,0.0725,0.0776,0.074,0.0664,,0.113,0.0967
MGESLFKGPRDYNPISSSICHLTNESDGHTTSLYGIGFGPFIITNKHLFRRNNGTLVVQSLHGVFKVKDTTTLQQHLVDGRDMIIIRMPKDFPPFPQKLKFREPQREERICLVTTNFQTKSMSSMVSDTSCTFPSGDGIFWKHWIQTKDGQCGSPLVSTRDGFIVGIHSASNFTNTNNYFTSVPKNFMELLTNQEAQQWVSGWRLNADSVLWGGHKVYMVKPEEPFQPVKEATQL [F218Y],0.123,,0.115,0.102,,,,,0.108,0.162
MGESLFKGPRDYNPISSSICHLTNESDGHTTSLYGIGFGPFIITNKHLFRRNNGTLVVQSLHGVFKVKDTTTLQQHLVDGRDMIIIRMPKDFPPFPQKLKFREPQREERICLVTTNFQTKSMSSMVSDTSCTFPSGDGIFWKHWIQTKDGQCGSPLVSTRDGFIVGIHSASNFTNTNNYFTSVPKNFMELLTNQEAQQWVSGWRLNADSVLWGGHKVFMVKPEEPFGPVKEATQL [Q227G],0.105,,,0.104,0.105,,,0.135,0.108,
MGESLFKGPRDYNPISSSICHLTNESDGHTTSLYGIGFGPFIITNKHLFRRNNGTLVVQSLHGVFKVKDTTTLQQHLVDGRDMIIIRMPKDFPPFPQKLKFREPQREERICLVTTNFQTKSMSSMVSDTSCTFPSGDGIFWKHWIQTKDGQCGSPLVSTRDGFIVGIHSASNFTNTNNYFTSVPKNFMELLTNQEAQQWVSGWRLNADSVLWGGHKVFMVKPEEPFQPVKPATQL [E231P],0.139,0.128,,,,0.149,0.105,0.169,,
MGESLFKGPRDYNPISSSICHLTNESDGHTTSLYGIGFGPFIITNKHLFRRNNGTLVVQSLHGVFKVKDTTTLQQHLVDGRDMIIIRMPKDFPPFPQKLKFREPQREERICLVTTNFQTKSMSSMVSDTSCTFPSGDGIFWKHWIQTKDGQCGSPLVSTRDGFIVGIHSASNFTNTNNYFTSVPKNFMELLTNQEAQQWVSGWRLNADSVLWGGHKVFMVKPEEPFQPVKEATQS [L235S],0.124,0.09,,,,,,,0.114,
MGISLFKGPRDYNPISSSICHLTNESDGHTTSLYGIGFGPFIITNKHLFRRNNGTLVVQSLHGVFKVKDTTTLQQHLVDGRDMIIIRMPKDFPPFPQKLKFREPQREERICLVTTNFQTKSMSSMVSDTSCTFPSGDGIFWKHWIQTKDGQCGSPLVSTRDGFIVGIHSASNFTNTNNYFTSVPKNFMELLTNQEAQQWVSGWRLNADSVLWGGHKVFMVKPEEPFQPVKEATQL [E3I],,,0.144,,0.116,0.0885,0.146,0.159,,0.141
MGESYFKGPRDYNPISSSICHLTNESDGHTTSLYGIGFGPFIITNKHLFRRNNGTLVVQSLHGVFKVKDTTTLQQHLVDGRDMIIIRMPKDFPPFPQKLKFREPQREERICLVTTNFQTKSMSSMVSDTSCTFPSGDGIFWKHWIQTKDGQCGSPLVSTRDGFIVGIHSASNFTNTNNYFTSVPKNFMELLTNQEAQQWVSGWRLNADSVLWGGHKVFMVKPEEPFQPVKEATQL [L5Y],,0.0908,,0.114,0.172,,0.141,,0.11,

# Same assay, conditions: temperature: 34 °C; time window: 0-4 h after rhamnose induction
Variant,area with substrate EVLYFQS,area with substrate EWLYFQS,area with substrate EQLYFQS,area with substrate ESLYFQS,area with substrate EFLYFQS,area with substrate EDLYFQS,area with substrate EELYFQS,area with substrate EYLYFQS
MGESLFKGPRDYNPISSSICHLTNESDGHTTSLYGIGFGPFIITNKHLFRRNNGTLVVQSLHGVFKVKDTTTLQQHLVDGRDMIIIRMPKDFPPFPQKLKFREPQREERICLVTTNFQTKSMSSMVSDTSCTFPSGDGIFWKHWIQTKDGQCGSPLVSTRDGFIVGIHSASNFTNTNNYFTSVPKNFMELLTNQEAQQWVSGWRLEADSVLWGGHKVFMVKPEEPFQPVKEATQL [N206E],0.115,0.118,,,,,,
MGESLFKGPRDYNPISSSICHLTNESDGHTTSLYGIGFGPFIITNKHLFRRNNGTLVVQSLHGVFKVKDTTTLQQHLVDGRDMIIIRMPKDFPPFPQKLKFREPQREERICLVTTNFQTKSMSSMVSDTSCTFPSGDGIFWKHWIQTKDGQCGSPLVSTRDGFIVGIHSASNFTNTNNYFTSVPKNFMELLTNQEAQQWVSGWRLNADSVSWGGHKVFMVKPEEPFQPVKEATQL [L211S],,,0.157,0.118,,,,
MGESLFKGPRDYNPISSSICHLTNESDGHTTSLYGIGFGPFIITNKHLFRRNNGTLVVQSLHGVFKVKDTTTLQQHLVDGRDMIIIRMPKDFPPFPQKLKFREPQREERICLVTTNFQTKSMSSMVSDTSCTFPSGDGIFWKHWIQTKDGQCGSPLVSTRDGFIVGIHSASNFTNTNNYFTSVPKNFMELLTNQEAQQWVSGWRLNADSVLWGQHKVFMVKPEEPFQPVKEATQL [G214Q],0.0759,,,,0.0985,,,
MGESLFKGPRDYNPISSSICHLTNESDGHTTSLYGIGFGPFIITNKHLFRRNNGTLVVQSLHGVFKVKDTTTLQQHLVDGRDMIIIRMPKDFPPFPQKLKFREPQREERICLVTTNFQTKSMSSMVSDTSCTFPSGDGIFWKHWIQTKDGQCGSPLVSTRDGFIVGIHSASNFTNTNNYFTSVPKNFMELLTNQEAQQWVSGWRLNADSVLWGGHWVFMVKPEEPFQPVKEATQL [K216W],0.084,,0.101,0.0764,0.0759,0.076,0.0833,
MGESLFKGPRDYNPISSSICHLTNESDGHTTSLYGIGFGPFIITNKHLFRRNNGTLVVQSLHGVFKVKDTTTLQQHLVDGRDMIIIRMPKDFPPFPQKLKFREPQREERICLVTTNFQTKSMSSMVSDTSCTFPSGDGIFWKHWIQTKDGQCGSPLVSTRDGFIVGIHSASNFTNTNNYFTSVPKNFMELLTNQEAQQWVSGWRLNADSVLWGGHKVFMVKPEEPFGPVKEATQL [Q227G],,,,0.111,0.106,,,0.135
MGESLFKGPRDYNPISSSICHLTNESDGHTTSLYGIGFGPFIITNKHLFRRNNGTLVVQSLHGVFKVKDTTTLQQHLVDGRDMIIIRMPKDFPPFPQKLKFREPQREERICLVTTNFQTKSMSSMVSDTSCTFPSGDGIFWKHWIQTKDGQCGSPLVSTRDGFIVGIHSASNFTNTNNYFTSVPKNFMELLTNQEAQQWVSGWRLNADSVLWGGHKVFMVKPEEPFQPVKPATQL [E231P],0.0898,0.0994,,0.099,,,,
MGESLFKGPRDYNPISSSICHLTNESDGHTTSLYGIGFGPFIITNKHLFRRNNGTLVVQSLHGVFKVKDTTTLQQHLVDGRDMIIIRMPKDFPPFPQKLKFREPQREERICLVTTNFQTKSMSSMVSDTSCTFPSGDGIFWKHWIQTKDGQCGSPLVSTRDGFIVGIHSASNFTNTNNYFTSVPKNFMELLTNQEAQQWVSGWRLNADSVLWGGHKVFMVKPEEPFQPVKEATQS [L235S],0.0942,0.113,0.115,0.0637,,,,
MGISLFKGPRDYNPISSSICHLTNESDGHTTSLYGIGFGPFIITNKHLFRRNNGTLVVQSLHGVFKVKDTTTLQQHLVDGRDMIIIRMPKDFPPFPQKLKFREPQREERICLVTTNFQTKSMSSMVSDTSCTFPSGDGIFWKHWIQTKDGQCGSPLVSTRDGFIVGIHSASNFTNTNNYFTSVPKNFMELLTNQEAQQWVSGWRLNADSVLWGGHKVFMVKPEEPFQPVKEATQL [E3I],0.123,,,0.141,,0.115,0.165,
MGESYFKGPRDYNPISSSICHLTNESDGHTTSLYGIGFGPFIITNKHLFRRNNGTLVVQSLHGVFKVKDTTTLQQHLVDGRDMIIIRMPKDFPPFPQKLKFREPQREERICLVTTNFQTKSMSSMVSDTSCTFPSGDGIFWKHWIQTKDGQCGSPLVSTRDGFIVGIHSASNFTNTNNYFTSVPKNFMELLTNQEAQQWVSGWRLNADSVLWGGHKVFMVKPEEPFQPVKEATQL [L5Y],,0.0951,0.125,0.138,,0.141,,0.107
